Out of some 350,000 compounds screened, about 31,000 (8.9%) were called active. Inconclusive results, whose numbers are uncertain, are shown with a selection of clear calls. Calls come from the whole dose curve; as a rule, active = well fitted inhibition curve with a large enough effect; inconclusive = small, poorly fitted or top-dose-only effect; inactive = no such curve, though single readings can be large or run the other way. Potencies of inconclusive entries are doubtful fits and often do not repeat.
target: Histone-lysine N-methyltransferase EHMT2 (Homo sapiens) (UniProt Q96KQ7); test: qHTS Assay for Inhibitors of Histone Lysine Methyltransferase G9a; conditions: G9a H3K9 monomethylation, AlphaScreen, 2 h; activity, negative = inhibition: at 59 µM (top of the series) unless noted; note: nearly all actives have a fitted effect of over 75% in size
Outline: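 Readings reflect AlphaScreen signal from monomethyl-H3K9 antibody detection. HMT at 20 nM; substrate b-H3K9 500 nM; cofactor SAM 20 uM; 2 h RT reaction; compounds tested as titrations in qHTS with 15 min preincubation.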
% is set by controls: 0 for no effect and ±100 for the full control effect; potency is the fitted concentration of half-maximal effect; tags give direction and shape of the fitted curve.

Sequence of UniProt Q96KQ7 (Q96KQ7 whole entry, looked up): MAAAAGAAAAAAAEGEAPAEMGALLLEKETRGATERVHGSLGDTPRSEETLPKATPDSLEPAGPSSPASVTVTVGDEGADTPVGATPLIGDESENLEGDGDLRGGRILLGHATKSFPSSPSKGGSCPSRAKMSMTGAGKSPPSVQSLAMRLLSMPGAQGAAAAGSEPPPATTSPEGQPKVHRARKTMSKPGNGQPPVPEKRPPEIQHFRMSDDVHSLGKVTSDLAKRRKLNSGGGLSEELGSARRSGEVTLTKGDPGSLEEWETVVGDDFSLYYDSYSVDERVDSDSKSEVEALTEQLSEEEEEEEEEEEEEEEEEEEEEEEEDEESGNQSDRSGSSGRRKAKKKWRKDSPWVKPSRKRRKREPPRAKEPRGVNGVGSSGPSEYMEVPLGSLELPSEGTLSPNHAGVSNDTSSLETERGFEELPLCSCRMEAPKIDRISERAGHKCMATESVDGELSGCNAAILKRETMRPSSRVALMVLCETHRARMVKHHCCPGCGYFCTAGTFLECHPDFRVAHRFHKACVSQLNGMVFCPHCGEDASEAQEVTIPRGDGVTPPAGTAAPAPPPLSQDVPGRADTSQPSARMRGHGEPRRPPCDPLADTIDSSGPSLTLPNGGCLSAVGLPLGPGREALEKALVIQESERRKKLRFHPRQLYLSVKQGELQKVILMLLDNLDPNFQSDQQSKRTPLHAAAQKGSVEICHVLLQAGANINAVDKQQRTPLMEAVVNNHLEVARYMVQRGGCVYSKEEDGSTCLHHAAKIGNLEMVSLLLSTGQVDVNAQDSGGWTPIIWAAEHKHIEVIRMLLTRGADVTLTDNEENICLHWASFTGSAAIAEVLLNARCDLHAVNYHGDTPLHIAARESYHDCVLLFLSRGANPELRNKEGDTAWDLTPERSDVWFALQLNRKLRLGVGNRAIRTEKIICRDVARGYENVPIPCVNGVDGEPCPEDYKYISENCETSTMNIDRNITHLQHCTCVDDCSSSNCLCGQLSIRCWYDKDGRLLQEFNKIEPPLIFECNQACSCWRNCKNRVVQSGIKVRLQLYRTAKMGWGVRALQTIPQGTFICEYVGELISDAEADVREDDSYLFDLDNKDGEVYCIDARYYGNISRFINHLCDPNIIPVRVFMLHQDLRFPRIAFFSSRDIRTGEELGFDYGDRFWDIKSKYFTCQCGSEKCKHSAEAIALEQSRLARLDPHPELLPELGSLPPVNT

| Compound | Potency | activity, negative = inhibition |
| --- | --- | --- |
| O=S(=O)(c1ccccc1)c1nc(-c2ccco2)oc1NCCCN1CCOCC1 | active: 14.1 µM |  |
| CCSc1nnc(-c2ccc(S(=O)(=O)N3CCOCC3)cc2)n1C | inactive |  |
| S=C(NC1CCCCC1)c1ccc2c(c1)OCO2 | inconclusive: 4.47 µM [inhibitor, partial curve, poor fit] |  |
| COC(=O)c1c(NC(=O)C2CC=CCC2C(=O)O)sc(C)c1C (configuration not stated) | inconclusive: 56.2 µM [inhibitor, partial curve, poor fit] |  |
| O=C(CSc1nnc(Cc2cccs2)n1C1CCCCC1)N1CCCc2ccccc21 | inconclusive: 1.12 µM [inhibitor, partial curve, poor fit] |  |
| O=C(NCc1cccnc1)c1ccccc1NS(=O)(=O)c1ccccc1 | inactive |  |
| COCCNC(=O)/C(C#N)=C/c1cccc(/C=C(\C#N)C(=O)NCCOC)c1 | inactive |  |
| c1ccc(-c2cc(-c3nc4ccccc4[nH]3)c3ccccc3n2)cc1 | inactive |  |
| CCOC(=O)c1ccccc1NC1(c2ccc(OC)cc2)C(=O)c2ccccc2C1=O | inconclusive: 11.2 µM [inhibitor, partial curve] |  |
| Cc1ccc(C(=O)c2c(NC(=O)c3ccncc3)sc3c2CCCC3)cc1 | active: 15.8 µM |  |
| Cc1ccc2c(c1)c(N=Nc1cccc(C(=O)O)c1)c(O)n2C | active: 35.5 µM |  |
| COc1cc(C(=O)NC(=S)NCc2ccco2)cc(OC)c1OC |  | inconclusive: -52.2% [inhibitor] |
| O=S(=O)(NCCSCc1c(Cl)cccc1Cl)c1ccc2c(c1)OCCO2 | inactive |  |
| c1ccc2c(c1)CCN(Cc1nnnn1Cc1ccc3c(c1)OCO3)C2 | inactive |  |
| C=C1C(=O)O[C@H]2C[C@]3(C)C([C@@H](OC(=O)/C(C)=C/C)[C@H]12)[C@](C)(O)CC[C@H]3O (some centres not stated) | inconclusive: 0.631 µM [inhibitor, partial curve, poor fit] |  |
| O=C(NCc1ccc(Cl)cc1)C(=O)NCC(c1ccco1)S(=O)(=O)c1cccs1 (configuration not stated) | inactive |  |
| COC(=O)/C=C1/SC(=NC(=O)c2ccc(F)cc2)NC1=O | inconclusive: 89.1 µM [inhibitor, partial curve, poor fit] |  |
| CCCOC(=O)c1ccc(-n2nnnc2SCC(=O)N2CCCCC2)cc1 | inconclusive: 89.1 µM [inhibitor, single point] |  |
| CCCCn1c(N)c(N(CC(C)C)C(=O)CSc2ccccc2C)c(=O)[nH]c1=O | inactive |  |
| CC[n+]1ccc(C)c2cc(S(=O)C(F)(F)F)ccc21 (configuration not stated) | inconclusive: 1.58 µM [inhibitor, full curve] |  |
| CCCCn1c(-c2ccsc2)nc2c1c(=O)[nH]c(=O)n2CCC |  | inconclusive: -71.8% [inhibitor] |
| NC(=O)c1ccc(NC(=O)COC(=O)CNC(=O)c2sc3ccccc3c2Cl)cc1 | inconclusive: 20 µM [inhibitor, single point] |  |
| COc1ccc(-n2c(Cc3cccn3C)nnc2SCC(=O)Nc2cccc(F)c2)cc1 | inconclusive: 50.1 µM [inhibitor, partial curve, poor fit] |  |
| CCOC(=O)C1CCN(C(=O)CSc2c3c(nc4ccc(Cl)cc24)CCCC3)CC1 | inactive |  |

| Compound | Potency | activity, negative = inhibition |
| --- | --- | --- |
| CCCCn1c(CCC)nc([N+](=O)[O-])c1Sc1ccc(Cl)cn1 | active: 14.1 µM |  |
| CCOc1ccc(S(=O)(=O)Nc2ccc3c(c2)c(C(C)=O)c(C)n3S(=O)(=O)c2ccc(OCC)cc2)cc1 | inconclusive: 31.6 µM [inhibitor, partial curve, poor fit] |  |
| CCOc1ccccc1-n1nnnc1SCC(=O)NCC1(N2CCOCC2)CCCCC1 |  | inactive: -4.28% [at 2.33 µM] |
| O=Cc1ccccc1-n1cncn1 |  | inactive: 14.9% [at 12.7 µM] |
| CCC1=C/C(=C/N(C)c2ccccc2)C(=O)S1 | active: 25.1 µM |  |
| N#Cc1c(-c2ccc(F)cc2)nc(-c2ccccc2)[nH]c1=O | inconclusive: 63.1 µM [inhibitor, partial curve, poor fit] |  |
| COc1ccc(-c2cc(-c3ccccc3)nc(SC(C)C(=O)O)c2C#N)cc1 (configuration not stated) | inconclusive: 89.1 µM [inhibitor, single point] |  |
| O=CN1CCN(C2CC(=O)N(c3ccc4c(c3)OCO4)C2=O)CC1 (configuration not stated) | inconclusive: 11.2 µM [inhibitor, partial curve, poor fit] |  |
| CC1=C(C)CC(C(=O)NCC(=O)c2ccccc2)C(C(=O)O)C1 (configuration not stated) | inconclusive: 89.1 µM [inhibitor, single point] |  |
| S=c1[nH]nc(-c2ccc(Br)cc2)n1-c1ccc2c(c1)OCCO2 | active: 1.58 µM |  |
| Cc1cc(C)c(S(=O)(=O)N2CCCCC2)c(C)c1N(C)S(=O)(=O)c1ccccc1 | inactive |  |
| Cc1oc(-c2ccccc2)nc1C(=O)OCC(=O)NCc1ccc(Cl)cc1 | inconclusive: 7.08 µM [inhibitor, single point] |  |
| Brc1cccc2sc(N3CCN(c4ccccc4)CC3)nc12 | inconclusive: 50.1 µM [inhibitor, partial curve] |  |
| N#Cc1nc(COc2ccc(Cl)cc2)oc1N1CCCCCC1 |  | inconclusive: -101% [inhibitor] |
| C=C(C)Cn1c(=O)c2c(nc3n2CCCN3CCc2ccccc2)n(C)c1=O | inactive |  |
| COc1ccccc1N1CCN(C(=O)C(CC(C)C)NC(=O)C2CCCCC2)CC1 (configuration not stated) | inactive |  |
| C=CCn1c(N)c(C(=O)Nc2ccccc2OC)sc1=S | inconclusive: 44.7 µM [inhibitor, partial curve] |  |
| O=C(NCC1(c2ccccc2)CCCC1)C(=O)Nc1cccc(C(F)(F)F)c1 | inactive |  |
| O=c1cc(O)n(-c2ccccc2F)c(=S)[nH]1 | active: 50.1 µM |  |
| Cc1cc(C(=O)COC(=O)c2cccnc2Cl)c(C)n1CC1CCCO1 (configuration not stated) | inconclusive: 17.8 µM [inhibitor, full curve] |  |
| COc1ccc(CCNC(=O)C2CC2)cc1OC | inconclusive: 2 µM [inhibitor, partial curve, poor fit] |  |
| O=C(COC(=O)c1cccc(OC(F)F)c1)NC1CCCC1 | inconclusive: 1.41 µM [inhibitor, single point] |  |
| O=C(NNS(=O)(=O)c1ccccc1[N+](=O)[O-])c1ccc(O)cc1 | inconclusive: 1.12 µM [inhibitor, full curve, poor fit] |  |
